Among all 200,000 compounds or so, about 4,500 (2.2%) were called active. Inconclusive results, whose numbers are uncertain, are shown with a selection of clear calls. The call rests on the fitted dose curve; in most records, active means well fitted inhibition curve with a large enough effect; inconclusive means small, poorly fitted or top-dose-only effect, or effect the other way; inactive means flat fitted curve, though single readings scatter. A potency beside an inconclusive call is a rough fit, not a confirmed value.
target: Cruzipain (Trypanosoma cruzi) (UniProt P25779); experiment: qHTS Assay for Promiscuous and Specific Inhibitors of Cruzain (without detergent); conditions: purified cruzain, Z-FR-AMC fluorescence, no detergent; further: nearly all actives have a fitted effect of over 40% in size
UniProt P25779, sequence (P25779 whole entry, looked up): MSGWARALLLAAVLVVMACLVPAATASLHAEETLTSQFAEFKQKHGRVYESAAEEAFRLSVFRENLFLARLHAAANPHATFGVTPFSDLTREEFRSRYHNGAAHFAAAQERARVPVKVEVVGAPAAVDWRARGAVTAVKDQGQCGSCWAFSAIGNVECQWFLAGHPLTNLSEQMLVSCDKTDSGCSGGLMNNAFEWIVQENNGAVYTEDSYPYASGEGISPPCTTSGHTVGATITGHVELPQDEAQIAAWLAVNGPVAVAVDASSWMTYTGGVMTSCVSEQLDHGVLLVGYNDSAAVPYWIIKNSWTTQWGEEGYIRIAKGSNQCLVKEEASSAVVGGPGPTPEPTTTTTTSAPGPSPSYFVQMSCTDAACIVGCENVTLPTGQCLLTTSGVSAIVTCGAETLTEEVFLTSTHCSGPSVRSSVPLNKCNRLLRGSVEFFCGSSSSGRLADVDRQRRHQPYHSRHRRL
Method: Cruzain is a cysteine protease from the tropical parasite Trypanosoma cruzi. Dual qHTS experiment was performed against the NCGC compound collection in order to 1) identify novel inhibitors of the enzyme and 2) profile the compound collection for promiscuous inhibitors operating via colloidal aggregation (by performing detergent-free and detergent-containing comparison screens). Cruzain was assayed by the use of fluorogenic coumarin-based substrate Z-FR-AMC: proteolytic cleavage releases AMC, whose fluorescence is measured at 360 nm excitation and 450 nm emission. Purified cruzain was supplied by the labs of Prof. James McKerrow and Brian Shoichet, UC San Francisco.
This assay had 0.00005% Triton X-100 concentration. See also releated assay "qHTS Assay for Promiscuous and Specific Inhibitors of Cruzain (with detergent)" with 0.01% Triton X-100.
See following references for additional details:
Assay Provider: Shoichet, Brian; University of California, San Fancisco
Screening Center PI: Austin, C.P.
Screening Center: NIH Chemical Genomics Center [NCGC]
Buffer: 100 mM Sodium Acetate, pH 5.5, 5 mM DTT, Triton X-100 concentration: 0.01%.
Buffer in columns 3 and 4 as negative control (no enzyme).
Substrate solution: 2 uM final concentration of Z-FR-AMC (catalog number I-1160, Bachem) dispensed throughout the plate.
Enzyme: 1.5 nM Cruzain final concentration in columns 1, 2, 5-48. Column 1 is neutral (100% activity). Column 2 contained titration of covalent inhibitor K11777, starting concentration 1 mM, then 1:2 dilution in duplicate).
Three uL of enzyme or buffer were dispensed to 1536-well Greiner black solid bottom plates. Compounds and controls (23 nL) were transferred via Kalypsys PinTool. The plates were incubated for 15 min at room temperature, and then 1 uL of substrate solution was added to start the reaction. The plates were immediately transferred to and read 4 times every 30 seconds for 2 min on ViewLux High-throughput CCD imager (Perkin-Elmer) using 360 nm excitation and 450 nm emission fluorescence protocol. The fluorescence intensity difference between the third and the first time points (time lapse of 60 seconds) was used to compute reaction progress.
Potency means the concentration at half of the fitted maximal effect; tags describe the fitted curve by direction and shape.

SMILES	Potency	max response, negative = inhibition
COc1ccc(-c2cc(C(=O)Oc3ccc(Br)cc3)c3ccccc3n2)cc1	inconclusive: 25.1 µM [inhibitor, single point]	
CCc1nnc(NC(=O)c2ccc(S(=O)(=O)N3CCCCCC3)cc2)s1	active: 12.6 µM	
CCc1ccc2c(c1)c(=O)c(S(=O)(=O)c1ccc(F)cc1)cn2CC(=O)Nc1ccccc1OC	inconclusive: 10 µM [inhibitor, single point]	
O=C(CC(NC(=O)c1ccccc1Cl)c1ccccc1)NCCc1ccc(Cl)cc1 (stereo unspecified)	inconclusive: 39.8 µM [inhibitor, single point]	
COc1cccc(C2C(=O)N(C3CCCCC3)CC(=O)N2CCc2ccc(OC)c(OC)c2)c1 (stereo unspecified)		inactive: 8.91%
COc1ccc(CN(C(=O)c2cc3ccccc3oc2=O)C2CCCCC2)cc1OC	inconclusive: 39.8 µM [activator, single point]	
COc1ccc(CCNC(=O)CCc2c(C)c3ccc(O)c(C)c3oc2=O)cc1	inconclusive: 39.8 µM [inhibitor, single point]	
Cc1cccc(N2CCN(C(=O)CS(=O)(=O)Cc3nc(-c4ccccc4F)oc3C)CC2C)c1 (stereo unspecified)	inconclusive: 20 µM [activator, partial curve]	
C[C@H](CCC(=O)O)[C@H]1CC[C@]2(C)[C@@H]3C(=O)C[C@H]4C(C)(C)[C@@H](O)CC[C@]4(C)[C@H]3C(=O)C[C@@]12C		inactive: -0.293%
Cc1ccc(C(=O)O/N=C/c2ccc3c(c2)OCO3)cc1	inconclusive: 31.6 µM [inhibitor, single point]	
Cc1ccc(CN=Cc2[nH]c3ccc(Br)c(Cl)c3c2O)cc1	inconclusive: 31.6 µM [inhibitor, single point]	
CCCCn1c(SCC(=O)Nc2ccc3c(c2)OCO3)nc2c1c(=O)n(C)c(=O)n2C	inconclusive: 39.8 µM [activator, single point]	
Nc1ccccc1-c1ccccc1		inactive: 1.48%
COc1ccc(-c2nc(CN3C(=O)CN=C(c4ccccc4)c4ccccc43)c(C)o2)cc1OC	inconclusive: 39.8 µM [activator, single point]	
COc1cc(C(=O)NCCCNc2nc3cc(C)cc(C)c3cc2C#N)cc(OC)c1OC	inconclusive: 39.8 µM [activator, single point]	
Cc1ccc(OCCCN(C)C)c(Br)c1		inactive: 3.25%
CCc1ccc(Nc2nc(-c3cc4cccc(OC)c4oc3=O)c(CC)s2)cc1	inconclusive: 25.1 µM [inhibitor, single point]	
CCCN(C(=O)c1cc2c(s1)-c1ccccc1OC2)c1ccc(C(C)C)cc1	inconclusive: 39.8 µM [inhibitor, single point]	
Brc1ccccc1-c1nnc(CSc2nnc3sc4ccccc4n23)o1	inconclusive: 0.126 µM [inhibitor, single point]	
Cc1ccc(C)c(Cn2nnc3c(=O)[nH]c(C4CCN(C(=O)c5cccs5)CC4)nc32)c1	inconclusive: 39.8 µM [activator, single point]	
N#Cc1ccc(N/N=C/c2cn(-c3ccccc3)nc2-c2ccccc2)c([N+](=O)[O-])c1	active: 5.01 µM	
CCOC(=O)Cc1ccc(NC(=O)Nc2nnc(N3CCCCC3C)s2)cc1 (stereo unspecified)	inconclusive: 25.1 µM [activator, partial curve]	

SMILES	Potency	max response, negative = inhibition
CCOc1ccc2nc(/N=C/c3c(C)[nH]n(-c4ccccc4)c3=O)sc2c1	inconclusive: 39.8 µM [activator, single point]	
COc1ccc(-c2nc3scc(CCNS(=O)(=O)c4cccs4)n3n2)cc1		inactive: 20.6%
COc1ccc(CNC(=O)CCc2c(C)nn(-c3ccc(N4CCCC4)nn3)c2C)cc1		inactive: 3.65%
COc1ccc(-c2nc(-c3ccccc3OC)no2)cc1OC	inconclusive: 31.6 µM [activator, partial curve]	
C[C@H]1c2cccc(O)c2C(O)=C2C(=O)[C@]3(O)C(O)=C(C(N)=O)C(=O)C(N(C)C)[C@@H]3[C@@H](O)C21 (stereo partly specified)		inactive: 6.86%
Cc1cc2c(cc1S(=O)(=O)CCC(=O)N1CCN(c3ccccc3)CC1)OCC(=O)N2		inactive: 10%
COCCCn1cnc2c(c1=O)c1nc3ccccc3nc1n2CCc1ccccc1	inconclusive: 31.6 µM [activator, single point]	
Cc1[nH]nc(N=Cc2c(O)n(C)c(=O)n(C)c2=O)c1-c1ccccc1	inconclusive: 31.6 µM [inhibitor, single point]	
CCCCOc1cccc(-c2nnc(NC(=O)CSc3ccc(C)cc3)s2)c1	inconclusive: 12.6 µM [inhibitor, single point]	
CCOc1ccc(-c2cc3nc(C4CCN(C(=O)OC(C)(C)C)CC4)c(C(=O)Nc4cccc(C(F)(F)F)c4)cn3n2)cc1	inconclusive: 3.98 µM [inhibitor, partial curve]	
COc1ccccc1NC(=O)c1ccc(CN(c2cc(Cl)ccc2C)S(=O)(=O)c2ccccc2)cc1	active: 12.6 µM	
COc1ccc(NC(=O)N2CCC3(CC2)CCN(C(=O)c2cc(C(F)(F)F)cc(C(F)(F)F)c2)CC3)cc1	inconclusive: 31.6 µM [activator, single point]	
CCOC(=O)c1c(-c2ccccc2)csc1NC(=O)CSc1nnnn1C	inconclusive: 39.8 µM [activator, single point]	
COC(=O)c1cc(OC)c(OC)cc1NCC(=O)Nc1cccc(C(F)(F)F)c1	inconclusive: 31.6 µM [activator, single point]	
O=C(CCn1cnc2ccccc2c1=O)Nc1ccc(S(=O)(=O)N2CCCCC2)cc1	inconclusive: 25.1 µM [activator, single point]	
Cc1cccc(N2CCN(S(=O)(=O)c3ccc4c(c3)CCC(=O)N4)CC2C)c1 (stereo unspecified)	inconclusive: 25.1 µM [inhibitor, single point]	
CCCOC(=O)c1c(-c2ccccc2)c(-c2ccccc2)nn(C)c1=O		inactive: -8.02%
COc1ccccc1C(=O)OCc1cc(=O)n2c(C)csc2n1		inactive: -10.7%
CCSc1ncc(Cl)c(C(=O)Nc2cc(C)ccc2C)n1	inconclusive: 7.94 µM [inhibitor, partial curve]	
Cc1ccc(S(=O)(=O)N2CCCC2C(=O)Nc2nc3c(s2)CCCC3)cc1 (stereo unspecified)	inconclusive: 1.58 µM [inhibitor, single point]	
COc1cccc(-c2cc(NCc3cnc(C)cn3)ncn2)c1		inactive: -12.9%
COc1ccc(-n2c(C)cc(C(=O)COC(=O)c3cc(NC(=O)c4cccs4)c(OC)c(OC)c3)c2C)cc1	inconclusive: 5.01 µM [inhibitor, full curve, poor fit]	

SMILES	Potency	max response, negative = inhibition
CCn1cc(/C=C2\SC(=O)N(CC(=O)Nc3ccc4c(c3)OCO4)C2=O)c2ccccc21	active: 3.16 µM	
O=C(c1ccc(Cl)cc1)n1nc(-c2ccccc2)nc1NCc1ccco1		inactive: 3.55%
Cn1c(=O)n(C)c2cc(CNCc3ccccc3Cl)ccc21		inactive: -6.24%
CC(C)(C)c1ccc(-c2nnc(NC(=O)c3ccccc3)s2)cc1	inconclusive: 31.6 µM [inhibitor, single point]	
COc1cccc(C(=O)NCc2cn3cccc(C)c3n2)c1	inconclusive: 12.6 µM [activator, partial curve]	
Cc1sc(N/N=C/C=C/c2ccccc2)nc1-c1ccccc1	active: 7.94 µM	
O=C(NCCCNCCCNC(=O)c1ccccn1)c1ccccn1		inactive: -3.9%
O=C(CSc1ccc2ccccc2c1Br)Nc1cccc(S(=O)(=O)NC2=NCCCCC2)c1	active: 20 µM	
COC(=O)c1c(NC(=O)CS(=O)(=O)c2ccc(C)cc2)sc2c1CCCCC2	active: 2.51 µM	
CCc1ccc(Oc2coc3cc(OC(=O)c4cc5ccccc5oc4=O)ccc3c2=O)cc1	active: 3.98 µM	
Cc1ccc(CCNC(=O)c2cc3ccccn3n2)cc1		inactive: -7.6%
Cc1ccc(Cn2c(C)c3cnn(CC(=O)N4CCN(c5cc(C)ccc5C)CC4)c(=O)c3c2C)cc1	inconclusive: 39.8 µM [inhibitor, single point]	
COc1cc(/C=C(/C#N)c2ccccc2F)ccc1OCc1ccccc1	inconclusive: 15.8 µM [inhibitor, partial curve]	
CCOC(=O)c1cc2c(=O)n3ccccc3nc2n(CCCOC)c1=NC(=O)c1cc2ccccc2o1	inconclusive: 7.94 µM [activator, partial curve]	
COc1ccccc1C(=O)Nc1ccc2oc(-c3ccc(F)cc3)nc2c1	inconclusive: 39.8 µM [activator, single point]	
CCc1cccc(NC(=O)CN2C(=O)COc3ccc(S(=O)(=O)N4CCC(C)CC4)cc32)c1		inactive: 13.8%
COCCNC(=O)CN1CCN(C(c2ccccc2)c2ccccc2)CC1		inactive: 0.854%
CCOC(=O)c1ccc(NC(=O)CSc2nnnn2C2CCCCC2)cc1	inconclusive: 31.6 µM [inhibitor, single point]	
CC1(C)CC2CC(C)(CN2C(=O)C23CCC(C)(C(=O)O2)C3(C)C)C1 (stereo unspecified)	inconclusive: 25.1 µM [activator, single point]	
CCc1c(C)sc(NC(=O)/C=C/c2ccc3c(c2)OCO3)c1C(=O)OC	inconclusive: 20 µM [inhibitor, partial curve, poor fit]	
CC(C(=O)NCc1ccccc1)n1ccc2cc(S(=O)(=O)N3CCCC3)ccc21 (stereo unspecified)		inactive: -4.31%
Cc1nc(CC(=O)Nc2ccc(C(N)=O)cc2)cs1		inactive: -7.13%

Source: PubChem BioAssay AID1476 (National Center for Advancing Translational Sciences (NCATS), 2009)
